Screen size: about 310,000 compounds; about 14,000 (4.5%) showed an effect of 50% or more. The effect is printed as a negative number. This is one part of the list.
Molecular target: human ether-à-go-go-related gene (hERG) potassium channel (human, UniProt Q12809)
Assay: primary screen, population patch clamp on CHO cells stably expressing hERG
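Note: peak tail current of the secondary pulse compared with the same well before compound.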

Chain of human ether-à-go-go-related gene (hERG) potassium channel (Q12809 whole entry, looked up): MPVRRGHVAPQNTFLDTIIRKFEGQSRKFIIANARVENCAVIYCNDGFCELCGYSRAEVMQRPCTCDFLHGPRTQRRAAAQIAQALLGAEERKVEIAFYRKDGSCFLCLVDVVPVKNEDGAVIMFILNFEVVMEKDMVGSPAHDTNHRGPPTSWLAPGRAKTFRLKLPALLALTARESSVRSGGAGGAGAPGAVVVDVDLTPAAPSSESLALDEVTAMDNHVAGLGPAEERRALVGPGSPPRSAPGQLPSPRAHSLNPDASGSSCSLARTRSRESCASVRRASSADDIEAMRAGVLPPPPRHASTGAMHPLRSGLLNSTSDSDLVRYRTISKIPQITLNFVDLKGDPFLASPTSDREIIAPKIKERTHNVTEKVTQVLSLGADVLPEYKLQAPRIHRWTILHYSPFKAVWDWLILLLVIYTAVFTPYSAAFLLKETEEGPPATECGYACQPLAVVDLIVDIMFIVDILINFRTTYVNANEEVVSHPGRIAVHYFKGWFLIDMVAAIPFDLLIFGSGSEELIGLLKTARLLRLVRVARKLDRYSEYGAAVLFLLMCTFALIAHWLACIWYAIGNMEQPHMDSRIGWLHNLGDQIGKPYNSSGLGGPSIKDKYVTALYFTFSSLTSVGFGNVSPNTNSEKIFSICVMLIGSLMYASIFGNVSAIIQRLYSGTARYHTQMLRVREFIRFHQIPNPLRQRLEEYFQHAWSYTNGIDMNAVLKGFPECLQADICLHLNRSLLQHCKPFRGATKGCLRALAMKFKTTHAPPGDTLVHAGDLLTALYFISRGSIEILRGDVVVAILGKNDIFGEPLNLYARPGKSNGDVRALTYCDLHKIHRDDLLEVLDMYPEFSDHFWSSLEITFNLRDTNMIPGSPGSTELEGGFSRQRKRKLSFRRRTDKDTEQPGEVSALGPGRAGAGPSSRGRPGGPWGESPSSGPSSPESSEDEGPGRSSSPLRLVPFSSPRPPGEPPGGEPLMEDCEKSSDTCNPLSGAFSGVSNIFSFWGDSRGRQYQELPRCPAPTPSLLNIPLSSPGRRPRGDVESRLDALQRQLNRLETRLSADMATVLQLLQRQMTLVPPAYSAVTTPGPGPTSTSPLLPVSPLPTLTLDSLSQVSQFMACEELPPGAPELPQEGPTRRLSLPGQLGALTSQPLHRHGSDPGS

SMILES | hERG current change (%, negative = inhibition) at 10uM
COc1ccc(C(=O)C2C(c3ccc(-c4ccccc4[N+](=O)[O-])o3)NC(=O)NC2(O)C(F)(F)F)cc1 (centres unmarked) | 4.9%
CC(C)OCCCNC(=O)c1ccc(Br)cc1 | -8.3%
CC(C)(C)N1CC(C(=O)Nc2cccc(Cl)c2Cl)CC1=O (centres unmarked) | 11.1%
CCOC(=O)c1sc(NC(C)=O)c(C(=O)OCC)c1C | -0.845%
COc1ccc2ccc(Oc3ncccn3)cc2c1 | -1.28%
COc1ccc(/C=C/C(=O)O)cc1COc1ccccc1C | -11.2%
COc1ccc(CN2C(=O)CN=C2Nc2cc(C)ccc2C)cc1.Cl | 1.79%
COc1ccc(C2NC(=O)C(C#N)=C(S)N2c2ccccc2)cc1OC (centres unmarked) | 10.2%
Cn1c(NNC(=O)c2ccccc2F)cc(=O)n(C)c1=O | -1.49%
C=CCOc1c(CCC)cc(CCC)cc1C(N)=O | -24.6%
N#CCC(=N)N1CCN(c2ccccc2Cl)CC1 | -18.4%
COc1ccc(OC)c(-c2cc(C(=O)Nc3c(C)nn(Cc4ccccc4)c3C)no2)c1 | -15.9%
Cc1ccc(C(=O)N2CCN(Cc3ccc4c(c3)OCO4)CC2)o1 | -26.7%
Br.c1ccc(-c2cn3c4c(sc3n2)CCCC4)cc1 | 11.6%
O=C(O)c1cc(-c2ccccc2)n(-c2ccccc2)n1 | -3.77%
Cc1ccc(N(C(C)C(=O)O)S(=O)(=O)c2c(C)[nH]c(=O)[nH]c2=O)cc1 (centres unmarked) | 12%
CCOC(=O)c1c(C)nc2c(C)cccn12 | -6.9%
O=C(NNC(=O)C12CC3CC(CC(C3)C1)C2)c1ccncc1 | 13.2%
Cc1ccc2c(c1)C(O)(c1c(C)[nH]c3ccccc13)C(=O)N2 (centres unmarked) | 25.4%
Cc1ccsc1C(=CCCN1CCC[C@@H](C(=O)O)C1)c1sccc1C.Cl | -5.13%
COc1ccc([C@H]2CC(=O)C=C(/C=C/Cc3ccccc3)C2)cc1 | -2.89%
O=C(NCc1ccco1)C(C(=O)c1ccc(F)cc1)n1ccccc1=O (centres unmarked) | 2.06%

SMILES | hERG current change (%, negative = inhibition) at 10uM
CCOC(=O)c1ccccc1OCc1cc(/C=N/NC(=O)c2ccncc2)ccc1OC | 9.72%
COCCn1c(SCCN2CCOCC2)nc2c1c(=O)[nH]c(=O)n2C | 14.2%
O=Cc1c(-c2ccc(Cl)cc2)oc2ccc(O)cc12 | -3.37%
Cc1ccc(S(=O)(=O)NCCc2nnc3ccc(SCC(=O)Nc4nc(C)cs4)nn23)cc1 | -2.23%
O=c1c2cc([N+](=O)[O-])ccc2nc2n1CCCC2 | 4.82%
Cc1ccc(N=C2N=C(N)c3ccccc32)cc1C | -10%
COC(=O)C1=C(c2ccccc2OCc2ccccc2)C[C@@H]2CC[C@H]1N2C(=O)NCc1ccc(OC)cc1 | -6.18%
Cc1ccc(C)c(OCC(=O)N/N=C/c2c(C)nn(-c3ccccc3)c2Cl)c1 | 13.4%
Cc1ccc(/C=N/Nc2ccc(C(=O)O)cc2)s1.O=S(=O)(O)O | 8.07%
O=C(Nc1ccc2c(c1)OCO2)N1CCN(C(=O)C2CCCO2)CC1 (centres unmarked) | -6.35%
O=S(Cc1cc(Oc2ccccc2)nc(-c2ccccc2)n1)c1ccccc1 (centres unmarked) | -7.69%
CS(=O)(=O)Nc1ccc(C2=NN(S(=O)(=O)c3ccccc3)C(c3cccs3)C2)cc1 (centres unmarked) | -70.3%
CCOC(=O)C1CCN(c2c(NC3CCCCCCC3)c(=O)c2=O)CC1 | -14.4%
C=CCn1c(-c2cccn(Cc3cccc(Cl)c3)c2=O)n[nH]c1=S | 6.96%
Cc1ccc(NC(=O)CNc2ccccc2N2CCCC2=O)cc1S(=O)(=O)N1CCCCC1 | -24.4%
Cc1ccc(S(=O)(=O)N2CCOCC2)cc1NC(=O)COC(=O)C1COc2ccccc2O1 (centres unmarked) | -1.8%
COc1cccc2c(=O)cc(C)n(CC(=O)Nc3ccc(C)c(C)c3)c12 | -5.88%
CCn1c(=O)c(C(=O)NCc2ccc(Cl)cc2)c(O)c2ccccc21 | 22.2%
CSCCC1NC2(C(=O)Nc3c(C)cc(Cl)cc32)[C@@H]2C(=O)N(C3CCCC3)C(=O)[C@H]12 (some centres unmarked) | -4.61%
CCOc1ccccc1N1CCN(C(=O)Nc2cccc(Cl)c2)CC1 | -16%
Cc1ccc2c(c1)C1CN(C)CCC1N2C(=O)c1ccc(Br)o1 (centres unmarked) | -38%
Cc1ccc(S(=O)(=O)N2CCN(C(=O)COC(=O)Cc3ccccc3)CC2)c(C)c1 | -16.4%
